The values that follow come from publication PMC7819943, “Rice protein-binding microarrays: a tool to detect cis-acting elements near promoter regions in rice”.

The other results are listed elsewhere or left out.

In this assay the target is T1, OsWOX13 (Oryza sativa, UniProt Q5QMM3 1-267).
T1 sequence: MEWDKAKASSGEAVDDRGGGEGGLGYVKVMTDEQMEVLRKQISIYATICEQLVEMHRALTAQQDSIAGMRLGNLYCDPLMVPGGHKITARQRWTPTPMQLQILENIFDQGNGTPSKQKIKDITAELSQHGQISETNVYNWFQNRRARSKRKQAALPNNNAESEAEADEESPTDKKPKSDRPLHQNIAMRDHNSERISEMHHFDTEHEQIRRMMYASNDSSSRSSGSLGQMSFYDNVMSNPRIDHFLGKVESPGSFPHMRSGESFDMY
The experiment in a line: protein-binding microarray (RPBM); PBS, 2% BSA, 51.3 ng/ul salmon testes DNA, 50 uM zinc acetate, 200 nM TF, 25 C, 1 h; high values mean tight binding. The following applies: protein: recombinant; tags: N-terminal polyhistidine and DsRed monomer fusion (pET32a); label: CyDye5-dUTP incorporated in the synthesized complementary strand; 3' TTTTT single-stranded linker to array surface; dsDNA, one strand shown. Summed up:
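Polyhistidine-tagged DsRed fusions of transcription factors, joined at the N-terminus, were expressed in E. coli BL21-CodonPlus and isolated on Ni–NTA. They were incubated at 200 nM for 1 h at 25 °C on a custom Agilent array, double-stranded and BSA-blocked, in PBS with 2% BSA, salmon testes DNA and 50 µM zinc acetate. The binding signal is per-feature fluorescence intensity (arbitrary units) read on an Axon 4000B scanner after washing.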
For “AACAATTCAATCATTTATGAGATAAACGGTTGTTTTCTACCGGAGTCACCTAGTGCAG”, the binding signal was 19400 fluorescence intensity (a.u.).
“AGTTGCAAATTGATCAAGGCATAATTTCAGGCTTACAGCTCGGAGTCACCTAGTGCAG”: the binding signal is 19000 fluorescence intensity (a.u.).
As to “TTGTGTGTGCGTTTGTGATTGCGTCGGTCGGTTTCAGTTCCGGAGTCACCTAGTGCAG”, the binding signal was 3980 fluorescence intensity (a.u.).
For “TCCCTAAATAGGGGCAATTGCAAATTTACCACTACTTTGACGGAGTCACCTAGTGCAG” the value was 3170 fluorescence intensity (a.u.); for “TTTGCGAAATTAATTATTCAGTGTTCTCCATAACACAATCCGGAGTCACCTAGTGCAG”, 10500 fluorescence intensity (a.u.); for “AAATTGTTGATTGATAACGACCAAAACCTACGGAGGAGCGCGGAGTCACCTAGTGCAG”, 28000 fluorescence intensity (a.u.).
For “CCGAAATTTGTCTCTTAATCATATACCGCACTTTCTGCCACGGAGTCACCTAGTGCAG” the value was 16100 fluorescence intensity (a.u.); for “GTACGATTGAATATTTATCGCAATTCATTTATCTAGTCATCGGAGTCACCTAGTGCAG”, 13400 fluorescence intensity (a.u.).
Consider “TATTAATTTAATAAAATTAATTTGGTAATGTAAATATTATCGGAGTCACCTAGTGCAG”, for which the binding signal is 15600 fluorescence intensity (a.u.).
For “CAGAATTGAAGAACTCAGGGAGCGTGTGGAGTGCAATATCCGGAGTCACCTAGTGCAG” the value was 3360 fluorescence intensity (a.u.); for “AATAATAATTAGATAAGGGTGATGTACTCGAGTATCTTCCCGGAGTCACCTAGTGCAG”, 16100 fluorescence intensity (a.u.).
For “TATTAATTGGATAAAGTCATCTATATTAATGTGGATAATACGGAGTCACCTAGTGCAG” the value was 17600 fluorescence intensity (a.u.).
To “GCCCTAGATTGTGTAACAAGGTGGCAGACTGTTTAGCCGCCGGAGTCACCTAGTGCAG” belongs 3540 fluorescence intensity (a.u.).
In the case of “CTTCAATGTTAATTGGAAGTAACTTTTGCATGGTTCAGAACGGAGTCACCTAGTGCAG”, the binding signal is 6760 fluorescence intensity (a.u.).
For “ATTTCCATCCATGATTGACGCCCTTCCTAAAACCAAGTTGCGGAGTCACCTAGTGCAG” the value was 32000 fluorescence intensity (a.u.); for “CAAATATATTATAAAATTGCATTTAATAAAACTTATTTGGCGGAGTCACCTAGTGCAG”, 3450 fluorescence intensity (a.u.).
For “GAATAAAATAATTTGCCTTCAATCTATGCAATCATTGCTGCGGAGTCACCTAGTGCAG” the value was 15100 fluorescence intensity (a.u.); for “TCTGGTTCGTCAATTGATGATGGATGGATGCTCTCCTTGTCGGAGTCACCTAGTGCAG”, 9860 fluorescence intensity (a.u.); for “GTGCTGAATTAATCACGCGAGGATTAAATATAGGAATACGCGGAGTCACCTAGTGCAG”, 8600 fluorescence intensity (a.u.).
To “TAAGTCATATAAAATTAATTCAATTTTATGTTAATCCCTTCGGAGTCACCTAGTGCAG” belongs 6270 fluorescence intensity (a.u.).
For the sequence “AGAAAATTGGCATATGGGGCCATGGGTATTACTTACTTTTCGGAGTCACCTAGTGCAG”, the binding signal is 12500 fluorescence intensity (a.u.).
On to “CTCTAATTTATCTATAGCCAACCTAATAGCTCATTAATACCGGAGTCACCTAGTGCAG”, for which the binding signal was 18900 fluorescence intensity (a.u.).
For “TATTAACTGTATTAGTTAAGCAGGGTTCACAAATTTGTTCCGGAGTCACCTAGTGCAG” the value was 3890 fluorescence intensity (a.u.); for “TGATGACCGAGTCAAATTAGCCACGTAGACGCCACATCAGCGGAGTCACCTAGTGCAG”, 3370 fluorescence intensity (a.u.).
For “AAATGTTAAATTGTAATTAAATCAACACTTTGACTGTCAGCGGAGTCACCTAGTGCAG” the value was 19400 fluorescence intensity (a.u.); for “GGAATAATTTCTGGGAACTCCTTTTCAGGAAATATTCGAGCGGAGTCACCTAGTGCAG”, 4350 fluorescence intensity (a.u.); for “ATATAAGATCAATTATTAACAATATAGTATATATTTATAGCGGAGTCACCTAGTGCAG”, 4040 fluorescence intensity (a.u.).
For the sequence “AGATGATTGTGTTAGTGCAACTATTTTGTGGATCGCTAAGCGGAGTCACCTAGTGCAG”, the binding signal is 27200 fluorescence intensity (a.u.).
For “AGGGGTATTAATTAAACTGCTGTAGACGGCCGGTCACACTCGGAGTCACCTAGTGCAG” the value was 11200 fluorescence intensity (a.u.); for “ATACTAATTAGAAGTATTAAAGGTGGACTATAGACAAAACCGGAGTCACCTAGTGCAG”, 17000 fluorescence intensity (a.u.); for “ATGGATGACTGTGATATGATATCTTACACATCAATGATAGCGGAGTCACCTAGTGCAG”, 7720 fluorescence intensity (a.u.).
As for “GTAGGTGACACTTCCAAATTGGACAGAACAGAGCTCAGTGCGGAGTCACCTAGTGCAG”, the binding signal is 3280 fluorescence intensity (a.u.).
Consider “ATCTGATGGAAAATGGCTAAGATTTAATGAATCAGAAACACGGAGTCACCTAGTGCAG”, for which the binding signal is 3850 fluorescence intensity (a.u.).
To “GACACTGGGTAAATTATTCAATTCTAACTAAATTATATGACGGAGTCACCTAGTGCAG” belongs 4590 fluorescence intensity (a.u.); to “TCCGATTGATTACCTTCTATAAATACCTCACCCCACCCCTCGGAGTCACCTAGTGCAG”, 57600 fluorescence intensity (a.u.); to “ATAATTAAAACTCAATTAATCACACGTTATTATCACATCGCGGAGTCACCTAGTGCAG”, 14200 fluorescence intensity (a.u.).
“AATTAACTGTGCTTAATTAACCCTACTGTTTACATCCGTGCGGAGTCACCTAGTGCAG”: the binding signal was 35500 fluorescence intensity (a.u.).
For “TTCCTGGAACCAATCAGCAGCTAAAAGTCAATCCACGCCACGGAGTCACCTAGTGCAG” the value was 16100 fluorescence intensity (a.u.); for “CTGCAATCACATTATTATCGCATGTAAATATATATATGGACGGAGTCACCTAGTGCAG”, 8740 fluorescence intensity (a.u.); for “GCCAAGTTAATCAATCAAAATCATCCACCAACTGGTGCAGCGGAGTCACCTAGTGCAG”, 26300 fluorescence intensity (a.u.).
To “TCGTTGTAATAATTTGATTTCTTTTGCAGACGGTCTTTATCGGAGTCACCTAGTGCAG” belongs 5300 fluorescence intensity (a.u.); to “TTCTCTGATTACCAAATATATGGGGCAAAATTTGTGTTAACGGAGTCACCTAGTGCAG”, 24700 fluorescence intensity (a.u.).
